Screen size: about 16,000 compounds; about 120 (0.75%) were called active. About 4% were inconclusive and are not listed. Calls follow the shape of the dose curve; as a rule, active = well fitted inhibition curve with a large enough effect; inconclusive = small, poorly fitted or top-dose-only effect; inactive = no such curve, though single readings can be large or run the other way. The list shows a part of the results.
target: Rap guanine nucleotide exchange factor 3 (Homo sapiens) (UniProt O95398); assay: Validation qHTS for antagonist of cAMP-regulated guanine nucleotide exchange factor 3 (EPAC1); conditions: EPAC1 Rap1B-BODIPY-GDP exchange, fluorescence; series mostly up to 150 µM; activity change, negative = inhibition: at the top concentration; also: nearly all actives have a fitted effect of over 75% in size;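 as to activity change, negative = inhibition: plate controls were DMSO for no effect and ATA control for full effect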
Procedure, shortened: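 EPAC1 (100 nM) mixed with 250 nM RAP1B-BODIPY-GDP and 50 uM GDP; compounds in concentration series, 5 min at room temperature. Fluorescence (ex 480/em 540 nm) read every 5 min for 30 min; normalized to ATA control and DMSO.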
Potency is read from the fitted curve at half-maximal effect.

Chain of UniProt O95398 (O95398 whole entry, looked up): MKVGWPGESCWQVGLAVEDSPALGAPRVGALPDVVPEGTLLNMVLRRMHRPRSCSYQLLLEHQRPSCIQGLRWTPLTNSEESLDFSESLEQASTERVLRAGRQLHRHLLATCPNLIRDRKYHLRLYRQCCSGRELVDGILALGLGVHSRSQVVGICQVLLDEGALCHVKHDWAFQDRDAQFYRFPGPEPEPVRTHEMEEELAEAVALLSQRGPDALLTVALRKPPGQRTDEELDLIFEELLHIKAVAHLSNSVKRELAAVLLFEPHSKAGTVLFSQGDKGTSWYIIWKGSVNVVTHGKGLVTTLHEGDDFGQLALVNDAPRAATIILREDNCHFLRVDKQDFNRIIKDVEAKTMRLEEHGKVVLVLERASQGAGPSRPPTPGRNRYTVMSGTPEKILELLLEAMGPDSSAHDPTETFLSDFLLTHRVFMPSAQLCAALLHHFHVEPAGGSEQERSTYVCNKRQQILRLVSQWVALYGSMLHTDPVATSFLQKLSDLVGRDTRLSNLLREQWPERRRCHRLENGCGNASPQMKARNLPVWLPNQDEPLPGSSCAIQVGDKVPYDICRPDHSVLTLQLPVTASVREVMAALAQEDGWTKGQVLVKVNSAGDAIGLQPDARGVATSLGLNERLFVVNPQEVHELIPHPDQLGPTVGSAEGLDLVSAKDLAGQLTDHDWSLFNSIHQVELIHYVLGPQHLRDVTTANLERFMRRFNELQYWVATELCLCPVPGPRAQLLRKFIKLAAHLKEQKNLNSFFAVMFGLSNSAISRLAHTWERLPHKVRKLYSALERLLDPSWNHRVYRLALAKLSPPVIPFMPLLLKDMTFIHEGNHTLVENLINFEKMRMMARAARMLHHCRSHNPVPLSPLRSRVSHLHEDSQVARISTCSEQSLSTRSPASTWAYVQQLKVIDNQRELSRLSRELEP

**Q.** Which “activity change, negative = inhibition” value does the source give for `COC(=O)N1CCC[C@@]2(CCN(c3ncccn3)C2)C1` here?
**A.** The value was inactive: 18.4%.

**Q.** For `CCN1CCC[C@H]1CNC(=O)c1cc(S(N)(=O)=O)ccc1OC`, which activity change, negative = inhibition is on record?
**A.** Its activity change, negative = inhibition is “inactive”.

**Q.** Which “activity change, negative = inhibition” value does the source give for `Cn1c(=O)c(-c2ccc(Cl)cc2)nc2cnc(N3CCNCC3)nc21` here?
**A.** The value was inactive: 8.74%.

**Q.** Which “activity change, negative = inhibition” value does the source give for `CCCCCCCCCCCCC(C(=O)O)C(C)C(=O)O` (centres undefined) here?
**A.** Its value is inactive: 1.9%.

**Q.** `Nc1ccc(S(N)(=O)=O)cc1` was tested. Which activity change, negative = inhibition did it give?
**A.** The activity change, negative = inhibition was “inactive”.

**Q.** For `Cc1noc(C)c1-c1nc(N(C)Cc2ccco2)c2ccccc2n1`, which “activity change, negative = inhibition” value is on record?
**A.** The value was inactive: -29.5%.

**Q.** How did the “activity change, negative = inhibition” value turn out when `CCOC(=O)N1CCN(Cc2ccc3c(c2)CN(C(=O)c2cc(-c4ccccc4)on2)CCO3)CC1` was run?
**A.** Its value is inactive: -13.6%.

**Q.** With `CC1CCN(CCCC(=O)c2ccc(F)cc2)CC1` as the compound, how does the “activity change, negative = inhibition” value read?
**A.** The value was inactive: 2.59%.

**Q.** `O=C(Nc1ccccc1)N1CC2(CCN(C(=O)c3cc(C(F)(F)F)cc(C(F)(F)F)c3)CC2)C1` was tested. Which “activity change, negative = inhibition” value did it give?
**A.** The value was inactive: -4.84%.

**Q.** With `COC(=O)C1CCN(Cc2ccc3c(c2)CN(C(=O)c2cc4ccccc4n2C)CCO3)CC1` as the compound, how does the “activity change, negative = inhibition” value read?
**A.** The value was inactive: 11.1%.

**Q.** With `O=S(=O)(NCCCCCCc1ccccc1)c1cccc2c(Cl)cccc12` as the compound, how does the “activity change, negative = inhibition” value read?
**A.** Its value is inactive: -21.7%.

**Q.** With `CCOc1nc2cccc(C(=O)OC(C)OC(=O)OC3CCCCC3)c2n1Cc1ccc(-c2ccccc2-c2nn[nH]n2)cc1` (centres undefined) as the compound, how does the Potency read?
**A.** Its Potency is active: 89.1 µM.

**Q.** How did the “activity change, negative = inhibition” value turn out when `CN(C)Cc1ccccc1-c1ccc2ncnc(NC3CC3)c2c1` was run?
**A.** The value was inactive: -24.5%.

**Q.** How did the “activity change, negative = inhibition” value turn out when `CC(=O)OC[C@@]12C(=O)[C@@H](O)[C@@H](C)[C@]3(C[C@@H](c4ccoc4)O[C@@H]3OC(C)=O)[C@H]1CCC[C@]21CO1` was run?
**A.** Its value is inactive: 23.4%.

**Q.** How did the Potency turn out when `O=C(OC1Cc2c(O)cc(O)cc2OC1c1cc(O)c(O)c(O)c1-c1c(C2Oc3cc(O)cc(O)c3CC2OC(=O)c2cc(O)c(O)c(O)c2)cc(O)c(O)c1O)c1cc(O)c(O)c(O)c1` (centres undefined) was run?
**A.** The Potency was active: 63.1 µM.

**Q.** Which “activity change, negative = inhibition” value does the source give for `C[C@H](N)CCCP(=O)(O)O` here?
**A.** The value was inactive: -0.925%.

**Q.** `COc1cccc(Cn2c(=O)c(-c3ccc(F)cc3)nc3cnc(OC)nc32)c1` was tested. Which “activity change, negative = inhibition” value did it give?
**A.** Its value is inactive: 8.18%.

**Q.** With `CCCC(=O)O[C@]1(C(=O)CCl)[C@H](C)C[C@@H]2[C@H]3CCC4=CC(=O)C=C[C@]4(C)[C@@]3(F)C(=O)C[C@@]21C` as the compound, how does the “activity change, negative = inhibition” value read?
**A.** Its value is inactive: 3.69%.

**Q.** Which “activity change, negative = inhibition” value does the source give for `O=C(c1ccco1)N1CCC[C@@]2(CCN(c3ccccn3)C2)C1` here?
**A.** Its value is inactive: 12.3%.

**Q.** For `CC(O)(C(=O)Nc1ccc(S(=O)(=O)c2ccccc2)cc1)C(F)(F)F` (centres undefined), which activity change, negative = inhibition is on record?
**A.** The activity change, negative = inhibition was “inactive”.

**Q.** Which “activity change, negative = inhibition” value does the source give for `O=C(C1CC12CCN(Cc1cccc3cccnc13)CC2)N1CCN(Cc2cccs2)CC1` (centres undefined) here?
**A.** The value was inactive: -7.91%.

**Q.** `CC(C)CN1CCC(=O)N(CCC#N)CC1` was tested. Which “activity change, negative = inhibition” value did it give?
**A.** The value was inactive: 23.8%.

**Q.** Which “activity change, negative = inhibition” value does the source give for `O=c1c(-c2cccs2)nc2cnc(Nc3ccccc3)nc2n1C[C@H]1CCCO1` here?
**A.** Its value is inactive: 50.1%.

**Q.** How did the “activity change, negative = inhibition” value turn out when `COc1cc(Br)c(C[N+]2(CCOCCC3CCC4CC3C4(C)C)CCOCC2)cc1OC` (centres undefined) was run?
**A.** The value was inactive: 23%.

**Q.** With `CC1=C(C(=O)OCCN(Cc2ccccc2)c2ccccc2)C(c2cccc([N+](=O)[O-])c2)C(P2(=O)OCC(C)(C)CO2)=C(C)N1` (centres undefined) as the compound, how does the “activity change, negative = inhibition” value read?
**A.** The value was inactive: 8.54%.

**Q.** How did the “activity change, negative = inhibition” value turn out when `Cc1c(C(=O)NC(C)(C)C)sc2ncnc(NCCN(C)C)c12` was run?
**A.** Its value is inactive: -8.82%.

**Q.** Which activity change, negative = inhibition does the source give for `O=C1CCN(Cc2ccccc2)CCN1[C@H](CO)Cc1ccccc1` here?
**A.** The activity change, negative = inhibition was “inactive”.

**Q.** `O=C(c1csnn1)N1CCC2(CC1)CCN(C(c1ccccc1)c1ccccc1)CC2` was tested. Which “activity change, negative = inhibition” value did it give?
**A.** The value was inactive: 6.28%.

**Q.** Which activity change, negative = inhibition does the source give for `CC(CCc1ccc(O)cc1)NCCc1ccc(O)c(O)c1` (centres undefined) here?
**A.** Its activity change, negative = inhibition is “inactive”.

**Q.** For `Cc1cnc(C)c(-c2cccc3c2OC(CNC(=O)c2cc(C)on2)C3)n1` (centres undefined), which “activity change, negative = inhibition” value is on record?
**A.** Its value is inactive: 8.44%.

**Q.** Which “activity change, negative = inhibition” value does the source give for `c1ccc(Nc2ncnc3ccc(-c4ccoc4)cc23)cc1` here?
**A.** The value was inactive: 7.72%.

**Q.** Which activity change, negative = inhibition does the source give for `Cc1cn([C@H]2C[C@H](O)[C@@H](CO)O2)c(=O)[nH]c1=O` here?
**A.** Its activity change, negative = inhibition is “inactive”.

**Q.** For `CC(C)NC(=O)N1CCC2(CC1)CCN(S(=O)(=O)c1ccccc1)CC2`, which “activity change, negative = inhibition” value is on record?
**A.** Its value is inactive: 6.22%.

**Q.** Which “activity change, negative = inhibition” value does the source give for `N[C@@H](Cn1cc(F)c(=O)[nH]c1=O)C(=O)O` here?
**A.** The value was inactive: -17.5%.

**Q.** `O=C(O)/C=C/c1ccccc1` was tested. Which “activity change, negative = inhibition” value did it give?
**A.** Its value is inactive: 13.4%.

**Q.** How did the “activity change, negative = inhibition” value turn out when `CNc1cc(-c2ccccc2C(F)(F)F)ncn1` was run?
**A.** Its value is inactive: 2.7%.

**Q.** How did the “activity change, negative = inhibition” value turn out when `Cc1c(C(=O)NCC(C)(C)N2CCOCC2)cnn1-c1ncc2c(n1)-c1ccccc1CC2` was run?
**A.** Its value is inactive: -0.766%.

**Q.** With `COc1cccc(CN(C)C(=O)c2cnn(-c3ncc4c(n3)-c3ccccc3CCC4)c2C)c1` as the compound, how does the “activity change, negative = inhibition” value read?
**A.** The value was inactive: -18.5%.

**Q.** For `CC12CCC(C1)C(C)(C)C2=O` (centres undefined), which “activity change, negative = inhibition” value is on record?
**A.** Its value is inactive: -4.09%.

**Q.** For `COc1ccccc1CN1CCC2(CC1)CCN(C(=O)c1ccco1)CC2`, which “activity change, negative = inhibition” value is on record?
**A.** The value was inactive: 20.8%.

**Q.** How did the “activity change, negative = inhibition” value turn out when `COc1ncc2nc(C)c(=O)n(C[C@H]3CCCO3)c2n1` was run?
**A.** The value was inactive: 11.9%.

**Q.** `COCCn1c(=O)c(-c2ccc(Cl)cc2)nc2cnc(N3CCNCC3)nc21` was tested. Which “activity change, negative = inhibition” value did it give?
**A.** The value was inactive: 3.63%.

**Q.** For `O=C(O)CC/C=C\C[C@@H]1CO[C@H](c2ccccc2Cl)O[C@@H]1c1ccccc1O`, which “activity change, negative = inhibition” value is on record?
**A.** The value was inactive: 2.15%.

**Q.** Which “activity change, negative = inhibition” value does the source give for `Cc1cccc(CNc2ncncc2-c2cccnc2)c1` here?
**A.** Its value is inactive: -5.47%.

**Q.** `Nc1nc2c(c(=O)[nH]1)N=C(CNc1ccc(C(=O)NC(CCC(=O)O)C(=O)O)cc1)CN2` (centres undefined) was tested. Which “activity change, negative = inhibition” value did it give?
**A.** Its value is inactive: 23.3%.

**Q.** `O=C(NCCN1Cc2ccccc2OC(c2ccccc2F)C1)c1cncs1` (centres undefined) was tested. Which “activity change, negative = inhibition” value did it give?
**A.** The value was inactive: 6.68%.

**Q.** `CN(C)c1ccc(-c2nc(N(C)C)c3ccccc3n2)cc1` was tested. Which “activity change, negative = inhibition” value did it give?
**A.** Its value is inactive: -8.45%.

**Q.** `O=C(O)CCC/C=C\C[C@@H]1[C@@H](/C=C/[C@H](O)C2Cc3ccccc3C2)[C@@H](F)C[C@@H]1O` was tested. Which “activity change, negative = inhibition” value did it give?
**A.** Its value is inactive: 3.98% [at 75.8 µM].

**Q.** For `CC12CCC(C[N+](C)(CCC[N+](C)(C)C)C1)C2(C)C` (centres undefined), which “activity change, negative = inhibition” value is on record?
**A.** The value was inactive: -3.27%.

**Q.** How did the “activity change, negative = inhibition” value turn out when `Cn1cc(-c2nc3cnc(Oc4ccccc4)nc3n(Cc3cccs3)c2=O)c2ccccc21` was run?
**A.** Its value is inactive: 7.52%.

**Q.** How did the “activity change, negative = inhibition” value turn out when `CC1=C(C(=O)O)N2C(=O)[C@@H](NC(=O)[C@H](N)c3ccc(O)cc3)[C@H]2SC1` was run?
**A.** Its value is inactive: 12.6% [at 75.8 µM].

**Q.** With `CN1CCN(c2ncncc2-c2ccoc2)CC1` as the compound, how does the “activity change, negative = inhibition” value read?
**A.** Its value is inactive: 13.3%.

**Q.** For `NS(=O)(=O)c1cc2c(cc1Cl)NC(Cc1ccccc1)NS2(=O)=O` (centres undefined), which “activity change, negative = inhibition” value is on record?
**A.** Its value is inactive: 14%.

**Q.** With `CN(CC1(C)CCCO1)S(=O)(=O)c1ccc(Cl)c(S(N)(=O)=O)c1` (centres undefined) as the compound, how does the “activity change, negative = inhibition” value read?
**A.** Its value is inactive: 33.3%.

**Q.** For `CC(CCC(=O)O)C1CCC2C3CC[C@@H]4CCCC[C@@]4(C)C3CC[C@@]12C` (some centres undefined), which “activity change, negative = inhibition” value is on record?
**A.** The value was inactive: 7.33%.

**Q.** With `C[C@@H](O)[C@H]1C(=O)N2C(C(=O)O)=C(SCCN=CN)C[C@H]12` as the compound, how does the activity change, negative = inhibition read?
**A.** The activity change, negative = inhibition was “inactive”.

**Q.** How did the “activity change, negative = inhibition” value turn out when `O=S1(=O)CCO[C@H]2CCCC[C@@H]2N1Cc1ccccc1` was run?
**A.** The value was inactive: 6.18%.

**Q.** With `N#CC(=C(/N)Sc1ccccc1N)/C(C#N)=C(\N)Sc1ccccc1N` as the compound, how does the activity change, negative = inhibition read?
**A.** The activity change, negative = inhibition was “inactive”.

**Q.** Which “activity change, negative = inhibition” value does the source give for `CN(C)C(=O)c1ccc(-c2nc(N(C)C)c3ccccc3n2)cc1` here?
**A.** The value was inactive: 16.5%.

**Q.** Which “activity change, negative = inhibition” value does the source give for `COC(=O)N1CCC2(CC1)CN(c1ccccc1)C2` here?
**A.** The value was inactive: 1.71%.

**Q.** How did the “activity change, negative = inhibition” value turn out when `OC1(c2ccc3c(c2)CN(Cc2ccccn2)CCO3)CCN(c2ccccc2F)CC1` was run?
**A.** The value was inactive: 0.821%.

**Q.** `CN(C)Cc1ccccc1-c1cncnc1NCc1ccccc1` was tested. Which “activity change, negative = inhibition” value did it give?
**A.** The value was inactive: 8.41%.

**Q.** Which “activity change, negative = inhibition” value does the source give for `Brc1ccccc1-c1ccccc1` here?
**A.** Its value is inactive: 36.8% [at 320 µM].

**Q.** With `N#Cc1ccc(CN2CCCC3(CCN(C(=O)c4cccc(F)c4)CC3)C2)cc1` as the compound, how does the “activity change, negative = inhibition” value read?
**A.** The value was inactive: 3.94%.

From PubChem BioAssay AID1645882 (National Center for Advancing Translational Sciences (NCATS), 2021)
